Measurements from publication PMC12136788.
The list shows a part of the results.

B1: chr19:36514967:36515079:-|CDS|ENSG00000254004|unk|total|mutant (ssRNA)
RNA: GGGAGUUCUACAGUCCGACGAUCCAUGAAUGCACUGAAUGUGGUAAAGUGUGCUCUCGAGUCUCAUCUCUUACUCUACACCUCCGAAGUCACACAGGAAAGAAGGCAUAUAAAUGUAAUAAAUGUGGAAAAGCCUUCAGCCAGCAACAGAGGAUUGAGCAUCA
B2: chr2:112756978:112757080:-|CDS|ENSG00000169607|unk|total|mutant (ssRNA)
RNA: GGGAGUUCUACAGUCCGACGAUCCUUCUGGGCAAAAGGCUGACUUCAGAAUGUGUUUCUUCUAACCCAUACUCUAAGCCUUCCCGCAAGAGUUUUCAACAGUGUGAAGCUGGAUCGUCCACAACAGGAGAACUGUCAAGAAAACAACAGAGGAUUGAGCAUCA
B3: ENSG00000139921:stop:overlap|stop_codon|ENSG00000139921|stop_codon|NA|stop_codon (ssRNA)
RNA: GGGAGUUCUACAGUCCGACGAUCUUCCACAGAAUGCCAUAAGACAACGCUCUCUGGGUCCAUCAUUGGCCACAGAUAAAUCCUAGUUAAAUUUUAUAGUUAUCUUAAUAUUAUGAUUUUGAUAAAAACAGAAGAUUGAUCAUUCAACAGAGGAUUGAGCAUCA
B4: chr6:149410404:149410522:+|3pUTR|ENSG00000055208|unk|FALSE|bound_elsewhere (ssRNA)
RNA: GGGAGUUCUACAGUCCGACGAUCUUAUAUUUCUAUAUGUAUAGUGUAAUAGCCUUUUGUUAACUAAUUUUCUUUUUUCCUUUUAGUAAUUAAGCACGAUCAUGUCCCUUUUUAAGCCUUACCUGAGAGGAACAAUGCCUUAAACAACAGAGGAUUGAGCAUCA
B5: chr8:103332422:103332528:+|3pUTR|ENSG00000164930|msi1|total|mutant (ssRNA)
RNA: GGGAGUUCUACAGUCCGACGAUCUUUUUUAACAUUCCGAAUAUUACAUUUUGUAUUAUACAGUACCUUUCUCAGACAUUUUGCCGAAUUCAUUUCGGCAGCUCACCCGGAUUUUGCUGAACAUUAAAAAGUGUGACCGCGAUACAACAGAGGAUUGAGCAUCA
B6: chr11:20048915:20049016:+|CDS|ENSG00000166833|unk|total|mutant (ssRNA)
RNA: GGGAGUUCUACAGUCCGACGAUCGAGCAGUGGGAGCAGCAGUCCUCUCUACAGCAAGAAUGUGGACCUCAACCAGUCUCCGCCCGCCUCCAGCCCCAGCUCAGCCCACUCGGCCCCUUCCAACAGCCUCACCUGGGGCACCAACAACAGAGGAUUGAGCAUCA
B7: chr11:75562225:75562326:+|5pUTR|ENSG00000149257|msi1|FALSE|unique (ssRNA)
RNA: GGGAGUUCUACAGUCCGACGAUCGCAGGAGGGGGUGGGGACUGCCAUAUAUAGAUCCCGGGAGCAGGGGAGCGGGCUAAGAGUAGAAUCGUGUCGCGGCUCGAGAGCGAGAGUCACGUCCCGGCGCUAGCCCAGCCCGACCCACAACAGAGGAUUGAGCAUCA
B8: chr12:66123492:66123593:-|3pUTR|ENSG00000139233|msi1|total|mutant (ssRNA)
RNA: GGGAGUUCUACAGUCCGACGAUCAUGCUACCCAAUAUCCAGUUAUAAUCAGGCCUCAACGUUCUGUCAGGUAUUAAUAUGGUCCGAAUUGUUCUUACAACUGGUAAUUACCGUCAACCGAGAUAAAACAGAUGAUGUACUGACCAACAGAGGAUUGAGCAUCA
B9: chr10:30336814:30336915:-|CDS|ENSG00000107951|unk|total|mutant (ssRNA)
RNA: GGGAGUUCUACAGUCCGACGAUCGUAUUUUCCAGACUGCACCGUCAGACCCUUUGGCUCCUCAGUCAACACUUUUGGGAAGUCCGGAUGUGAUUUGGACAUGUUUUUGGAUCCCGAUGAAACCAGAAACCUCAGCGCUCACAACAACAGAGGAUUGAGCAUCA
B10: ENSG00000135454:stop:overlap|stop_codon|ENSG00000135454|stop_codon|NA|stop_codon (ssRNA)
RNA: GGGAGUUCUACAGUCCGACGAUCAGCGCGUUAGUGGCCCCUACGUGGAACACUAUCUCAUGCCCUUCGGCAAGGUGUGCAGCUAGCAGGCUGAACGGCAGGCCAGAGGACUCCCGCAGGGGGUGUGCCCUCAAUCUGCAGCCUCAACAGAGGAUUGAGCAUCA
B11: chr7:113918214:113918996:-|CDS|ENSG00000154415|control|control|control (ssRNA)
RNA: GGGAGUUCUACAGUCCGACGAUCUGAGAAGUUAGUAUAUGUAAGAAUGUCUUUAGAUGACUGGCAGACACAUUAUGACAUUUUAGCAGAAUAUGUUCCUAAUUCAUGUGAUGGUGAAACUGACCAGUUCUCCUUUAAGAUUGUCAACAGAGGAUUGAGCAUCA
B12: chr5:119149357:119149458:+|CDS|ENSG00000172869|msi1|total|mutant (ssRNA)
RNA: GGGAGUUCUACAGUCCGACGAUCCUGGGAGAGUACCAAAGUUGUGCCCCUUUCUAAAUUUGUACUAUUACGAAGUGUGGACCCCGUUUCUUCUGCCGAUGGCUCCCCACCUUUUCCUGUUUCUUUAUCGUGGGUCCGGGAUGGCAACAGAGGAUUGAGCAUCA
B13: chr16:33844783:33845086:-|CDS|ENSG00000259680|control|control|control (ssRNA)
RNA: GGGAGUUCUACAGUCCGACGAUCAGCUGGGUCCGCCAGGCUCCAGGGAAGGGACUGGAGUGGAUUUCAUACAUUAGUGGUGAUAGUGGUUACACAAACUACGCAGACUCUGUGAAGGGCCGAUUCACCAUCUCCAGGGACAACCAACAGAGGAUUGAGCAUCA
B14: chr9:21239001:21239365:-|three_prime_utr|ENSG00000228083|control|control|control (ssRNA)
RNA: GGGAGUUCUACAGUCCGACGAUCCAAAAUUUUCAAAUGUUUUCAGGAGUGUAAAGAAGCAUCAUGUAUACCUGUGCAGGCACUAGUCCUUUACAGAUGACCAUGCUGAUGUCUCCUUUCAUCUAUUUAUUUAAAUAUUUAUUUCAACAGAGGAUUGAGCAUCA
B15: chr13:45957189:45957298:-|CDS|ENSG00000123200|unk|total|mutant (ssRNA)
RNA: GGGAGUUCUACAGUCCGACGAUCUGUUUUUGUUUUCUUCAAACCGGGCACCAUAAAACAAGCUUACACGAGUGCUCCAAUGGCCGACAAUGAAUUACUUCGAUUGAGUCUUCGGUUAUUUAAGCGGAAGACUACUUGCCAUGCCAACAGAGGAUUGAGCAUCA
B16: chr1:9614578:9614679:+|3pUTR|ENSG00000188807|msi1|FALSE|unique (ssRNA)
RNA: GGGAGUUCUACAGUCCGACGAUCUCCAGCUGCCAGCAAUGGUUCCAACUCGGAGGCAGCGCCUCUUGGUCCCCAUUUCUGUAUAGCAGGCGUGUGUGUGUGUGUCGAGGUUUUUUAUUUUUUGCUUAAUCAAACUCCAUUCCCCAACAGAGGAUUGAGCAUCA
B17: chr5:72209348:72209524:+|3pUTR|ENSG00000131711|msi1_unk|FALSE|overlapping (ssRNA)
RNA: GGGAGUUCUACAGUCCGACGAUCUUAUGUCUUAUAAUCCUGCAUCACUUCUAUCCUAUCCAGUCAUAUCUAAUGUAGAAAAUUAGUUUCCAGUGAAAGUAAUAUGUAGUGCUUUUAUGAUAUUUGUGUGCAAUAUCCCCUCUUCAACAGAGGAUUGAGCAUCA
B18: chr22:38736040:38736148:-|3pUTR|ENSG00000100242|msi1|total|mutant (ssRNA)
RNA: GGGAGUUCUACAGUCCGACGAUCCCCCAUGCAGAUGAAAAGGACGGGCAGGGUCUCCUGAGCAGCAGGUGGCUCGAGGCGGUCCGCAGGCUCCAGCAGCUCCCUUCUUCCUUCCCUCUGUGCCCGUGGCGUCUGCUUCCCAUCCAACAGAGGAUUGAGCAUCA
B19: chr1:23091194:23091296:-|CDS|ENSG00000169641|unk|FALSE|unique (ssRNA)
RNA: GGGAGUUCUACAGUCCGACGAUCCUCCAGAAGGACCCAAAGUAGCCUCACUGUGUCAGAGGUGCUUACCCGUCGGAAUCGGGUAGGAGACACCAUCACUGUCGCAGCCUGGAACCACUCAGCAAGCAUGGUGAGUUCCAGCCUCAACAGAGGAUUGAGCAUCA
B20: chr9:111714444:111714623:-|CDS|ENSG00000165181|control|control|control (ssRNA)
RNA: GGGAGUUCUACAGUCCGACGAUCAGCAUUUUAGGCCCCUAUUUGGGUGACAUUUGGAGACAGCUGGAGAUUGUACAGUUUAUUAGGGGGAAAAAGCCUGAAACCAACUACAAGAUACAAGAAUUGCAAUGUCAGAUACUAAGUCAACAGAGGAUUGAGCAUCA
B21: chr17:41822664:41822765:+|3pUTR|ENSG00000141756|msi1|total|mutant (ssRNA)
RNA: GGGAGUUCUACAGUCCGACGAUCUUCCUUAAAAUGUUUGGAUUUGCAAAGCCAAUUUGGGGCCUGUGGAGCCUGGGGUUGGACCGGGCCAUGGCUGGUCCCCCACCAUACCUCCCCUCCACAUCACUGACACAGCUGAGCUUGCAACAGAGGAUUGAGCAUCA
B22: chr15:43456694:43456846:-|CDS|ENSG00000067369|unk|FALSE|unique (ssRNA)
RNA: GGGAGUUCUACAGUCCGACGAUCAGACACCAGGGAUGACAUUAGUAUUUUAGCCACUGGUUGCAAGGGCAGAGAAGAAACGGUAGCAGAAGAUGUUUGUAUUGAUCUCACUUGUGAUUCGGGGAGUCAGGCAGUUCCGUCACCCAACAGAGGAUUGAGCAUCA

molecular target: MSI1 full-length (mouse, UniProt Q61474 1-362); test: nsRBNS (natural sequence RNA bind-n-seq); RBNS binding buffer (assumed for nsRBNS): 25 mM Tris pH 7.5, 150 mM KCl, 3 mM MgCl2, 0.01% Triton X-100, 500 ug/ml BSA, 20 U/ml SUPERase-In, 4 C; UNK is unkempt and MSI1 is Musashi-1; names of the RNAs are library labels; protein concentration not given here; high values mean tight binding
UniProt Q61474, sequence (Q61474 whole entry): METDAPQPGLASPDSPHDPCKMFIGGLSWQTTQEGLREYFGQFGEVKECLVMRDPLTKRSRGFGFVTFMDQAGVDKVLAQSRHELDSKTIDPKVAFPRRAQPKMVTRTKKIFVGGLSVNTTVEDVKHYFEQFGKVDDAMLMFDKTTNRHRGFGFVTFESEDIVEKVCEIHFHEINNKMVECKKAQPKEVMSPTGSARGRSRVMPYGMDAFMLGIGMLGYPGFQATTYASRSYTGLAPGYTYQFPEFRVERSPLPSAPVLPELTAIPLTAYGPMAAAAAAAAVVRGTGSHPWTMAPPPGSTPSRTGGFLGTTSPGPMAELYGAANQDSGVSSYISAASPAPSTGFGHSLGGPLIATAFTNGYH

Binder | binding signal [enrichment R]
B1 | 0.408
B2 | 0.501
B3 | 0.597
B4 | 30.1
B5 | 0.818
B6 | 0.595
B7 | 0.866
B8 | 0.303
B9 | 0.393
B10 | 4.38
B11 | 2.24
B12 | 0.624
B13 | 0.455
B14 | 0.493
B15 | 0.222
B16 | 0.651
B17 | 22.2
B18 | 0.688
B19 | 0.229
B20 | 1.47
B21 | 0.412
B22 | 3.82
